Experimental data reported in patent US20130244332.

What was measured:
[1] = molecular target: 5-10 (E490K) ZFP/FokI fusion protein

B1: 5-10 ZFP/FokI fusion protein (wild-type FokI cleavage half-domain) (protein)
chain: MAPKKKRKVGIHGVPAAMAERPFQCRICMRNFSRSDSLSRHIRTHTGEKPFACDICGRKFADSSNRKTHTKIHTGGGGSQKPFQCRICMRNFSRSDSLSVHIRTHTGEKPFACDICGRKFADRSNRITHTKIHLRQKDAARGSQLVKSELEEKKSELRHKLKYVPHEYIELIEIARNSTQDRILEMKVMEFFMKVYGYRGKHLGGSRKPDGAIYTVGSPIDYGVIVDTKAYSGGYNLPIGQADEMQRYVEENQTRNKHINPNEWWKVYPSSVTEFKFLFVSGHFKGNYKAQLTRLNHITNCNGAVLSVEELLIGGEMIKAGTLTLEEVRRKFNNGEINF
DNA cleavage (in vitro, 5-8 not present): Non-specific

B2: 5-8 ZFP/FokI fusion protein (wild-type FokI cleavage half-domain) (protein)
chain: MAPKKKRKVGIHGVPAAMAERPFQCRICMRNFSRSDNLSEHIRTHTGEKPFACDICGRKFARNAHRINHTKIHTGSQKPFQCRICMRNFSRSDTLSEHIRTHTGEKPFACDICGRKFAARSTRTTHTKIHLRQKDAARGSQLVKSELEEKKSELRHKLKYVPHEYIELIEIARNSTQDRILEMKVMEFFMKVYGYRGKHLGGSRKPDGAIYTVGSPIDYGVIVDTKAYSGGYNLPIGQADEMQRYVEENQTRNKHINPNEWWKVYPSSVTEFKFLFVSGHFKGNYKAQLTRLNHITNCNGAVLSVEELLIGGEMIKAGTLTLEEVRRKFNNGEINF
DNA cleavage (in vitro, labeled ~400 bp substrate) [1]: Specific
